# About 2,200 (0.71%) of roughly 310,000 compounds showed an effect of 50% or more. The effect is printed as a negative number. Some of the results follow.
# Target: human ether-à-go-go-related gene (hERG) potassium channel (human, UniProt Q12809)
# Experiment: primary screen, population patch clamp on CHO cells stably expressing hERG
# Sequence of human ether-à-go-go-related gene (hERG) potassium channel (Q12809 whole entry, looked up): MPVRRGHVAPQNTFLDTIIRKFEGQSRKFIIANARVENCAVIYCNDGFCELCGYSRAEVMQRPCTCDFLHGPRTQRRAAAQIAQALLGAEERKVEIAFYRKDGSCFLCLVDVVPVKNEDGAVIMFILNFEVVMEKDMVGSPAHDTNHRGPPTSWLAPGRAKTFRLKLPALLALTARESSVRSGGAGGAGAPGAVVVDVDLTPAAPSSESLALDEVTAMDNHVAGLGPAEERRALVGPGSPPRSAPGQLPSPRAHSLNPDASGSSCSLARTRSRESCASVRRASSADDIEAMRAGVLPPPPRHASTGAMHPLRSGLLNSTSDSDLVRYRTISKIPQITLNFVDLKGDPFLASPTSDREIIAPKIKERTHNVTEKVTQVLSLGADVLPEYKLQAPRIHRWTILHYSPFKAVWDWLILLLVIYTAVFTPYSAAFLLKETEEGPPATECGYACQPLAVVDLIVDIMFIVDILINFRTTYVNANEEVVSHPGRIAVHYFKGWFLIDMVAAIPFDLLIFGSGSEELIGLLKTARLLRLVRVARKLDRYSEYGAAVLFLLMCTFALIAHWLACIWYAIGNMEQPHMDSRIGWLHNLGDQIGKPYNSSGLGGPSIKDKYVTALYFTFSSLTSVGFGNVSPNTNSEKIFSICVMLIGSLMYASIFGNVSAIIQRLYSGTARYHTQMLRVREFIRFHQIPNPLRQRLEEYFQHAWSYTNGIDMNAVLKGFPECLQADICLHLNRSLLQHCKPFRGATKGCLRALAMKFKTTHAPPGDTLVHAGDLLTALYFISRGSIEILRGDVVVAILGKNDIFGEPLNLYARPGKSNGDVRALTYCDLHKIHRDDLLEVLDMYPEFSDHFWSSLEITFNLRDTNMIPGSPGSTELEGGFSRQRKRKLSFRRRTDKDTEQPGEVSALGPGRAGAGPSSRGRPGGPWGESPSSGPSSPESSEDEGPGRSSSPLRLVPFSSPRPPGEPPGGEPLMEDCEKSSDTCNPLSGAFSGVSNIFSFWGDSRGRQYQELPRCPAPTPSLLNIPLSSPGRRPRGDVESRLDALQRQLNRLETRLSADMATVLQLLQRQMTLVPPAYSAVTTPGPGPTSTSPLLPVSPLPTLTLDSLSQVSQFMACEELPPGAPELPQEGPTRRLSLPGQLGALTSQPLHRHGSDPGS
row,SMILES,"hERG current change (%, negative = inhibition) at 1uM"
1,CCn1cc(/C=C(\NC(=O)c2ccccc2F)C(=O)NCCCn2ccnc2)c2ccccc21,-1.46%
2,COc1cc(-c2nnc(SCc3c(F)cccc3Cl)o2)cc(OC)c1OC,11.8%
3,CCCC(C)NC(=O)CSc1nnc(-c2c[nH]c3ccccc23)o1 (stereo not shown),-0.615%
4,CCCCCOC(=O)C1=C(C)N(C)C(=O)NC1c1cc(Br)c(O)c(OC)c1 (stereo not shown),-2.63%
5,COc1cccc(OCCCN2CCN(S(=O)(=O)c3ccc(NC(C)=O)cc3)CC2)c1,10.6%
6,CCSc1nnc(CNC(=O)c2ccccc2F)n1-c1ccccc1OC,15.2%
7,c1ccc(CN2CCC(N3CCN(Cc4ccc5c(c4)OCO5)CC3)CC2)cc1,-0.767%
8,Cc1cc(OCC(=O)NCc2ccccn2)c2c(C)cc(=O)oc2c1,8.74%
9,CCOc1ccc(Cc2noc3c2C(=O)CCC3)cc1OCC,23.3%
10,CC(C)Cc1ccc(/C(=N/O)C(=O)O)s1,10.6%
11,CCc1nc(NC(=O)c2sc(C)nc2C)sc1C(=O)OC,6.61%
12,COc1ccccc1NS(=O)(=O)c1cc(NC(=O)C(C)NC(N)=O)ccc1N1CCCC1 (stereo not shown),4.13%
13,CCCCOc1ccc(C(C)NC(=O)CCS(=O)(=O)Cc2ccccc2Cl)cc1 (stereo not shown),13.2%
14,COC(=O)c1ccc(NC(=O)CSC2=Nc3ccccc3C3CC=NN23)cc1 (stereo not shown),8.83%
15,O=C(COC(=O)c1ccc(O)cc1O)N=c1sccn1Cc1ccccc1Cl,14.6%
16,CCOC(=O)c1c(S(=O)(=O)N2CCN(C)CC2)c(C)n(C)c1C,7.87%
17,CS(=O)(=O)C1=NSC2=NC(=O)/C(=C\c3ccc(OC(=O)c4ccco4)cc3)C(=N)N21,16.3%
18,Cc1ccc(C)c(NC(=O)C2CC(=O)N(C3CCCCC3)C2)c1 (stereo not shown),3.55%
19,CCCCN(CCCC)C(=O)CN(C)S(=O)(=O)c1ccc2c(c1)n(C)c(=O)c(=O)n2C,2.52%
20,CC1CN(c2ccccc2)c2nc3c(c(=O)[nH]c(=O)n3C)n2C1 (stereo not shown),12.6%
21,Cc1ccc(OCC(=O)Nc2cc(S(=O)(=O)N3CCCCC3)ccc2N2CCN(C)CC2)c(C)c1,-4.54%
22,COc1cc(S(=O)(=O)Nc2ccc3nc(C)sc3c2)ccc1NC(C)=O,13.3%

row,SMILES,"hERG current change (%, negative = inhibition) at 1uM"
1,Cc1ccccc1NC(=O)c1c(C)cc(=O)oc1C,18.8%
2,Cc1cccc(NC(=O)CN2C(=O)COc3ccc(Cl)cc32)c1,8.94%
3,CCc1c(C(=O)N/N=C/c2ccco2)nnn1-c1nonc1N,14.8%
4,CCOc1ccc(-n2nnc3c(=O)n(CC(=O)NCc4ccco4)cnc32)cc1,11.1%
5,Cc1cccc(OCC(O)Cn2c(N3CCCCC3)nc3c2c(=O)[nH]c(=O)n3C)c1 (stereo not shown),9.31%
6,O=C(Nc1cccc2ncccc12)c1cc([N+](=O)[O-])ccc1Cl,15%
7,COC(=O)c1c(N2C(=O)CC(Sc3ccccc3C(=O)O)C2=O)sc(C)c1C (stereo not shown),14.8%
8,O=C(CNC(=O)c1ccco1)NCC(=O)OCC(=O)c1ccc(Cl)c([N+](=O)[O-])c1,12.2%
9,CCOc1ccccc1N1CCN(Cc2cnc(-c3ccccc3)[nH]2)CC1,-3.01%
10,Cc1ccc([N+](=O)[O-])c(OCCN2CCCCCC2)c1.O=C(O)C(=O)O,-9.99%
11,Cc1c2cnn(CC(=O)NCCCN3CC(C)CC(C)C3)c(=O)c2c(C)n1Cc1ccc(Cl)cc1 (stereo not shown),9.41%
12,Cc1ccc2nc(Nc3nc(C)cc(C(F)(F)F)n3)nc(C)c2c1,12.3%
13,CC1(C)CC(=O)c2cc(C(=O)NC3CCSC3=O)c(=O)n(-c3ccccc3)c2C1 (stereo not shown),10.9%
14,CCC(=O)N1CCN(CCN=CC2=C(O)CC(C)(C)CC2=O)CC1,8.04%
15,C#CCOCCOCCOCCNc1nc(N2CCN(C(=O)[C@H](Cc3cc4ccccc4[nH]3)n3cc([C@@H](N)C(C)CC)nn3)CC2)nc(N2CCN(C(=O)[C@H](Cc3cc4ccccc4[nH]3)n3cc([C@@H](N)Cc4ccc(O)cc4)nn3)CC2)n1.Cl (stereo partly shown),10.9%
16,COc1ccccc1-c1nnc(NC(=O)C(C)SC2=NCCS2)s1 (stereo not shown),6.93%
17,Cc1cc(C)c2nc(N3CCC(C(=O)NCc4ccccn4)CC3)sc2c1,9.75%
18,CSc1nc(NCCOCCO)c2sc3nc(-c4ccco4)c4c(c3c2n1)CCC4,-2.08%
19,O=C1CCC(=O)N1OCCOc1ccc(Cl)c2ccccc12,12.2%
20,O=C(CCN1C(=O)/C(=C/c2ccccc2Cl)SC1=S)N1CCOCC1,24.5%
21,CC1CC(C)CN(CCC(=O)Nc2ccc(Br)cc2)C1.Cl (stereo not shown),-9.22%

# Source: paper PMC4336329 (PLoS ONE, 2015)
